# Experimental data as given in the supplement of paper PMC8007513.
# Counter-ions that a name gives are not always drawn. ± gives the standard error. Among all 1,300 compounds or so, about 75 (6%) showed an effect of 50% or more. The list shows a part of the results.
# System: Trichoderma virens ATCC 9645
# Test: growth yield (OD600) relative to untreated control; higher = less growth inhibition
# Settings: compound concentration: 100 uM
# Procedure, shortened: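 Trichoderma virens ATCC 9645 spores at 15,000 spores ml^−1 in potato dextrose broth were exposed in 96-well plates to library compounds at 100 μM final, with or without a biocide at 200 ng ml^−1. After growth at 30 °C, OD600 was read at 40 h and 72 h. Values are growth relative to the control without either agent, averaged over duplicate screens.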
smiles,measurement,setting,value
CC(C)C[C@H](NC(=O)[C@@H](O)[C@H](N)Cc1ccccc1)C(=O)O [Ubenimex],growth yield,40 h,107 ± 7%
same,growth yield,72 h,107 ± 7.1%
CNC(=C[N+](=O)[O-])NCCSCc1ccc(CN(C)C)o1 [Ranitidine hydrochloride],growth yield,40 h,100 ± 3.5%
same,growth yield,72 h,101 ± 2.2%
CCN(CC)CCCC(C)Nc1c2ccc(Cl)cc2nc2ccc(OC)cc12 (stereo not drawn) [Quinacrine dihydrochloride hydrate],growth yield,40 h,94.4 ± 1.9%
same,growth yield,72 h,95.54 ± 0.94%
CCCCCCCCCCCCCCCC[N+](C)(C)CCN(Cc1ccc(OC)cc1)c1ncccn1 [Thonzonium bromide],growth yield,40 h,0%
same,growth yield,72 h,0%
C#C[C@]1(O)CC[C@H]2[C@@H]3CCc4cc(OC)ccc4[C@H]3CC[C@@]21C [Ethynylestradiol 3-methyl ether],growth yield,40 h,85.5 ± 0.95%
same,growth yield,72 h,86.1 ± 0.73%
CC(C)NCC(O)c1ccc(NS(C)(=O)=O)cc1 (stereo not drawn) [Sotalol hydrochloride],growth yield,40 h,106 ± 3.3%
same,growth yield,72 h,103 ± 2.1%
CN(CCOc1ccc(NS(C)(=O)=O)cc1)CCc1ccc(NS(C)(=O)=O)cc1 [Dofetilide],growth yield,40 h,100 ± 5.9%
same,growth yield,72 h,98.7 ± 4.3%
CC(=O)N1CCN(c2ccc(OCC3COC(Cn4ccnc4)(c4ccc(Cl)cc4Cl)O3)cc2)CC1 (stereo not drawn) [Ketoconazole],growth yield,40 h,2.22 ± 1.3%
same,growth yield,72 h,1.68 ± 0.84%
CCn1cc(C(=O)O)c(=O)c2cc(F)c(N3CCN(C)CC3)cc21 [Pefloxacine],growth yield,40 h,98.2 ± 4.5%
same,growth yield,72 h,97.4 ± 5.3%
C[C@@H]1CN(c2c(F)c(N)c3c(=O)c(C(=O)O)cn(C4CC4)c3c2F)C[C@H](C)N1 [Sparfloxacin],growth yield,40 h,98.3 ± 1.8%
same,growth yield,72 h,97.7 ± 1.5%
C[C@]12C=CC(=O)C=C1CC[C@@H]1[C@@H]2C(=O)C[C@@]2(C)[C@H]1CC[C@]2(O)C(=O)CO [Prednisone],growth yield,40 h,105 ± 4.3%
same,growth yield,72 h,98.1 ± 5.1%
CCn1cc(C(=O)O)c(=O)c2cc(F)c(N3CCNC(C)C3)c(F)c21 (stereo not drawn) [Lomefloxacin hydrochloride],growth yield,40 h,93.9 ± 3%
same,growth yield,72 h,92.4 ± 1.6%
CS(=O)(=O)Nc1ccc([N+](=O)[O-])cc1Oc1ccccc1 [Nimesulide],growth yield,40 h,92.1 ± 5.1%
same,growth yield,72 h,99.7 ± 1.6%
COc1cc(C)nc(-n2nc(C)cc2OC)n1 [Epirizole],growth yield,40 h,111 ± 3.8%
same,growth yield,72 h,109 ± 3.8%
CNC(=C[N+](=O)[O-])NCCSCc1csc(CN(C)C)n1 [Nizatidine],growth yield,40 h,104 ± 1.9%
same,growth yield,72 h,99 ± 4.8%
CC(C)CN(C[C@@H](O)[C@H](Cc1ccccc1)NC(=O)O[C@H]1CCOC1)S(=O)(=O)c1ccc(N)cc1 [Amprenavir],growth yield,40 h,106.7 ± 0.95%
same,growth yield,72 h,108.3 ± 0.52%
CNCCC=C1c2ccccc2CCc2ccccc21 [Nortriptyline hydrochloride],growth yield,40 h,98.5 ± 2.5%
same,growth yield,72 h,102.9 ± 0.32%
C[C@H]1[C@H](NC(=O)/C(=N\OC(C)(C)C(=O)O)c2csc(N)n2)C(=O)N1S(=O)(=O)O [Aztreonam],growth yield,40 h,102 ± 1.8%
same,growth yield,72 h,104 ± 2.6%
CCc1c2c(nc3ccc(OC(=O)N4CCC(N5CCCCC5)CC4)cc13)-c1cc3c(c(=O)n1C2)COC(=O)[C@]3(O)CC [Irinotecan hydrochloride trihydrate],growth yield,40 h,109.1 ± 0.79%
same,growth yield,72 h,104.7 ± 0.63%
Cc1ccc(/C(=C\CN2CCCC2)c2ccccn2)cc1 [Triprolidine hydrochloride],growth yield,40 h,100.7 ± 0.32%
same,growth yield,72 h,103 ± 1.6%
CC(C)(O/N=C(\C(=O)N[C@@H]1C(=O)N2C(C(=O)[O-])=C(C[n+]3ccccc3)CS[C@H]12)c1csc(N)n1)C(=O)O [Ceftazidime pentahydrate],growth yield,40 h,102%
same,growth yield,72 h,102 ± 1.1%
Cc1c(Cl)cccc1Nc1ncccc1C(=O)O [Clonixin Lysinate],growth yield,40 h,88.5 ± 5.6%
same,growth yield,72 h,87.7 ± 3.4%
CN1CCN(C(c2ccccc2)c2ccc(Cl)cc2)CC1 (stereo not drawn) [Chlorcyclizine hydrochloride],growth yield,40 h,86.25 ± 0.16%
same,growth yield,72 h,92.9 ± 1.3%
O=C(N/N=C/c1ccc([N+](=O)[O-])o1)c1ccc(O)cc1 [Nifuroxazide],growth yield,40 h,90.1 ± 2.4%
same,growth yield,72 h,89 ± 2.2%
CCC(=O)[C@@]1(C)[C@H](C)C[C@H]2[C@@H]3CCC4=CC(=O)C=C[C@]4(C)[C@H]3[C@@H](O)C[C@@]21C [Rimexolone],growth yield,40 h,112 ± 14%
same,growth yield,72 h,106 ± 8.3%
CCc1cc(C(N)=S)ccn1 [Ethionamide],growth yield,40 h,102 ± 3%
same,growth yield,72 h,103 ± 2%
CC(=O)Nc1c(I)c(NC(C)=O)c(I)c(C(=O)O)c1I [Diatrizoic acid dihydrate],growth yield,40 h,104 ± 3.6%
same,growth yield,72 h,101 ± 1.6%
CN(N=O)C(=O)N[C@@H](C=O)[C@@H](O)[C@H](O)[C@H](O)CO [Streptozotocin],growth yield,40 h,103 ± 2.1%
same,growth yield,72 h,97.01 ± 0.52%
C#C[C@]1(O)CC[C@H]2[C@@H]3[C@H](C)CC4=C(CCC(=O)C4)[C@H]3CC[C@@]21C [Tibolone],growth yield,40 h,88.31 ± 0.64%
same,growth yield,72 h,90.72 ± 0.1%
COc1cc(C(=O)N2CCOCC2)cc(OC)c1OC [Trimetozine],growth yield,40 h,103 ± 2.9%
same,growth yield,72 h,97.95 ± 0.21%
CC(=O)OCC(=O)[C@@]1(O)CC[C@H]2[C@@H]3CCC4=CC(=O)C=C[C@]4(C)[C@@]3(F)[C@@H](O)C[C@@]21C [Isoflupredone acetate],growth yield,40 h,104 ± 4.1%
same,growth yield,72 h,99.6 ± 2.3%
CN(C)CCCOc1nn(Cc2ccccc2)c2ccccc12 [Benzydamine hydrochloride],growth yield,40 h,94.8 ± 2.4%
same,growth yield,72 h,100 ± 4%
Nc1ccc(S(=O)(=O)Nc2ccc(Cl)nn2)cc1 [Sulfachloropyridazine],growth yield,40 h,94.5 ± 3.6%
same,growth yield,72 h,94.3 ± 1.8%
COc1cc2nc(N3CCN(C(=O)C4CCCO4)CC3)nc(N)c2cc1OC (stereo not drawn) [Terazosin hydrochloride],growth yield,40 h,104 ± 3.5%
same,growth yield,72 h,98.7 ± 2.4%
NS(=O)(=O)c1cc2c(cc1Cl)NCNS2(=O)=O [Hydrochlorothiazide],growth yield,40 h,106 ± 6%
same,growth yield,72 h,102 ± 4.5%
C[N+]1(C)CCC(=C(c2ccccc2)c2ccccc2)CC1 [Diphemanil methylsulfate],growth yield,40 h,98.6 ± 6.2%
same,growth yield,72 h,97.2 ± 3%
CN(C)CCc1c[nH]c2ccc(C[C@H]3COC(=O)N3)cc12 [Zolmitriptan],growth yield,40 h,106 ± 1.3%
same,growth yield,72 h,101 ± 1.1%
CN(C)CCC=C1c2ccccc2C=Cc2ccccc21 [Cyclobenzaprine hydrochloride],growth yield,40 h,90.86 ± 0.32%
same,growth yield,72 h,89.2 ± 6%
O=c1[nH]c(=O)n([C@H]2C[C@H](O)[C@@H](CO)O2)cc1F [Floxuridine],growth yield,40 h,11.1 ± 3.8%
same,growth yield,72 h,46.3 ± 9.3%
CNNCc1ccc(C(=O)NC(C)C)cc1 [Procarbazine hydrochloride],growth yield,40 h,91.2%
same,growth yield,72 h,83.1 ± 4%
COc1cc(C)c(/C=C/C(C)=C/C=C/C(C)=C/C(=O)O)c(C)c1C [Acitretin],growth yield,40 h,95.1 ± 3%
same,growth yield,72 h,89.2 ± 3.7%
CC(C)OC(=O)CCC/C=C\C[C@@H]1[C@@H](CC[C@@H](O)CCc2ccccc2)[C@H](O)C[C@@H]1O [Latanoprost],growth yield,40 h,91.8 ± 9.2%
same,growth yield,72 h,90.6 ± 7.5%
CC(=O)Oc1cc(C(C)C)c(OCCN(C)C)cc1C [Moxisylyte hydrochoride],growth yield,40 h,100 ± 1.1%
same,growth yield,72 h,97.4 ± 1.1%
CC(c1cc2ccccc2s1)N(O)C(N)=O (stereo not drawn) [Zileuton],growth yield,40 h,94.5 ± 1.4%
same,growth yield,72 h,92 ± 2.2%
